The record followed here is US20180326010A1 (Hoffmann-La Roche, published 2018).

This experiment concerns the target T1, human PD-1 (Programmed cell death protein 1) (human, UniProt Q15116 25-288).
T1 construct: also called hPD-1; CD279
In words: competitive binding assay by flow cytometry with AF647-labelled antibody on co-cultured Tconv and Treg after 5 days of CD3/CD28 stimulation; frequency bound on Tconv minus frequency bound on Treg. As to the method: The binding properties of PD1-IL2v to activated conventional and regulatory T cells were assessed in a competitive binding assay. CD4⁺ CD25⁺ CD127^dim Regulatory T cells (Treg) were isolated with the two-step Regulatory T cell Isolation Kit (Miltenyi, #130-094-775). In parallel the CD4⁺ CD25⁻ conventional T cells (Tconv) were isolated by collecting the negative fraction of a CD25 positive selection (Miltenyi, #130-092-983) followed by a CD4⁺ enrichment (Miltenyi, #130-045-101). The Tconv were labelled with CFSE (eBioscience, #65-0850-84) and the Treg were labelled with Cell Trace Violet (ThermoFisher scientific, C34557) to track the proliferation of both populations. Tconv and Treg were together seeded into a culture plate that were coated overnight at 4° C. with 1 μg/ml CD3 (clone OKT3, #317315, BioLegend). CD28 was added in solution at a concentration of 1 μg/ml CD28 (clone CD28.2, #302923, BioLegend). After 5 days of stimulation a binding assay was conducted with PD1 (0376) and PD1-IL2v (0590), which were both labelled in-house with AF647.
(In general: A flow cytometer gives signals particle by particle.)

T1 sequence (Q15116 25-288 limits assumed): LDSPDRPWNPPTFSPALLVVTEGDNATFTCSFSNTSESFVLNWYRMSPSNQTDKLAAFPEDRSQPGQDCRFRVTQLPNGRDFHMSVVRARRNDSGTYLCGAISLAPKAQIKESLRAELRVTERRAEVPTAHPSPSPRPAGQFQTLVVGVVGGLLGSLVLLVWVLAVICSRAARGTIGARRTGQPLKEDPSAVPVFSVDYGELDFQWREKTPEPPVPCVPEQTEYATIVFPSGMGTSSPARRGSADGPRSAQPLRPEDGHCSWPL

B1: human PD1-IL-2v fusion protein (other)
heavy 1: EVQLLESGGGLVQPGGSLRLSCAASGFSFSSYTMSWVRQAPGKGLEWVATISGGGRDIYYPDSVKGRFTISRDNSKNTLYLQMNSLRAEDTAVYYCVLLTGRVYFALDSWGQGTLVTVSSASTKGPSVFPLAPSSKSTSGGTAALGCLVKDYFPEPVTVSWNSGALTSGVHTFPAVLQSSGLYSLSSVVTVPSSSLGTQTYICNVNHKPSNTKVDKKV[… human IgG1 Fc with changes …]GGGGSGGGGSGGGGSAPASSSTKKTQLQLEHLLLDLQMILNGINNYKNPKLTRMLTAKFAMPKKATELKHLQCLEEELKPLEEVLNGAQSKNFHLRPRDLISNINVIVLELKGSETTFMCEYADETATIVEFLNRWITFAQSIISTLT
heavy 2: EVQLLESGGGLVQPGGSLRLSCAASGFSFSSYTMSWVRQAPGKGLEWVATISGGGRDIYYPDSVKGRFTISRDNSKNTLYLQMNSLRAEDTAVYYCVLLTGRVYFALDSWGQGTLVTVSSASTKGPSVFPLAPSSKSTSGGTAALGCLVKDYFPEPVTVSWNSGALTSGVHTFPAVLQSSGLYSLSSVVTVPSSSLGTQTYICNVNHKPSNTKVDKKVEPKSCDKTHTCPPCPAPEAAGGPSVFLFPPKPKDTLMISRTPEVTCVVVDVSHEDPEVKFNWYVDGVEVHNAKTKPREEQYNSTYRVVSVLTVLHQDWLNGKEYKCKVSNKALGAPIEKTISKAKGQPREPQVCTLPPSRDELTKNQVSLSCAVKGFYPSDIAVEWESNGQPENNYKTTPPVLDSDGSFFLVSKLTVDKSRWQQGNVFSCSVMHEALHNRFTQKSLSLSP
light: DIVMTQSPDSLAVSLGERATINCKASESVDTSDNSFIHWYQQKPGQSPKLLIYRSSTLESGVPDRFSGSGSGTDFTLTISSLQAEDVAVYYCQQNYDVPWTFGQGTKVEIKRTVAAPSVFIFPPSDEQLKSGTASVVCLLNNFYPREAKVQWKVDNALQSGNSQESVTEQDSKDSTYSLSSTLTLSKADYEKHKVYACEVTHQGLSSPVTKSFNRGEC
notes: Immunoconjugate: IgG1 anti-human PD-1 antibody with one mutant IL-2 fused to the C-terminus of the knob heavy chain; also called PD1-IL2v (0590); PD1-IL2v bispecific antibody
For the molecule B1, the binding result is reported as “binds”.
